Data from PubChem BioAssay AID1745845 (National Center for Advancing Translational Sciences (NCATS), 2022).
“And” between values parts separate entries of the source, which are not always exact repeats. Identical values can stand only once. In all, about 360,000 compounds went through this assay and about 2,600 (0.72%) were called active. The shares of active, inactive and inconclusive entries below differ from those in the screen. Calls follow the shape of the dose curve; as a rule, active = well fitted inhibition curve with a large enough effect; inconclusive = small, poorly fitted or top-dose-only effect; inactive = no such curve, though single readings can be large or run the other way. Potencies beside an inconclusive call are fits to weak or partial responses and may not hold up.

test: Primary qHTS for Inhibitors of ATXN expression; settings: HEK-293 ATXN2-luciferase reporter, luminescence, 24 h; activity change, negative = inhibition: at 57 µM (top of the series); also: nearly all actives have a fitted effect of over 55% in size
Outline: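 ATXN2-luciferase reporter cells (luciferase flanked by upstream and downstream ATXN2 gene portions) were treated 24 h at 37 °C with compounds at up to 57 uM. SteadyGlo luminescence gave expression; GF-AFC fluorescence gave viability.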
% is scaled to controls: 0 for no effect and ±100 for the full control effect; potency is read from the fitted curve at half-maximal effect; tags tell the direction and shape of the fitted curve.

Q: Which Potency does the source give for COc1ccc(C2C3(C#N)C(N)=NC(OC)(OC)C23C#N)cc1 (configuration not stated) here?
A: Its Potency is inconclusive: 16.8 µM [inhibitor, partial curve, poor fit].

Q: Which “activity change, negative = inhibition” value does the source give for CCOC(=O)C(NC(=O)c1ccccc1)(OCc1ccc(F)cc1)C(F)(F)F (configuration not stated) here?
A: Its value is inactive: -10%.

Q: Which “activity change, negative = inhibition” value does the source give for CC(=O)c1ccccc1NS(=O)(=O)c1cccc2nonc12 here?
A: Its value is inactive: -6.18%.

Q: With O=C1C(Cl)=C(Nc2ccc3cn[nH]c3c2)C(=O)c2ccccc21 as the compound, how does the Potency read?
A: Its Potency is active: 20 µM.

Q: For O=C(CSc1nnc(-c2ccccc2Br)o1)Nc1nncs1, which “activity change, negative = inhibition” value is on record?
A: Its value is inactive: -21.1%.

Q: With CCCc1nnc(SCc2ccc(OC)cc2)n1N as the compound, how does the “activity change, negative = inhibition” value read?
A: The value was inactive: -5.54%.

Q: Which activity change, negative = inhibition does the source give for COc1ccc(C(=O)N2CCN(c3nc(C4CC4)nc4sc(C)c(C)c34)CC2)cc1 here?
A: The activity change, negative = inhibition was inconclusive: -62% [inhibitor].

Q: With CCC(CC)C(=O)c1c[nH]c(C(=O)NCc2ccccn2)c1 as the compound, how does the Potency read?
A: The Potency was inconclusive: 8.44 µM [inhibitor, single point].

Q: With COc1cccc(N2CCc3c(C)nc4ccc(Cl)cc4c32)c1 as the compound, how does the Potency read?
A: Its Potency is inconclusive: 15 µM [inhibitor, partial curve].

Q: Which Potency does the source give for COc1cccc(CN2CCN(C(=O)c3cccc(OC)c3)CC2)c1 here?
A: The Potency was inconclusive: 33.6 µM [inhibitor, single point].

Q: With Cc1cc(OC(F)F)ccc1NC(=S)NCCc1ccccc1 as the compound, how does the “activity change, negative = inhibition” value read?
A: The value was inactive: 5.19%.

Q: With Cc1ccsc1/C=N/NC(=S)NCc1ccccc1 as the compound, how does the “activity change, negative = inhibition” value read?
A: Its value is inactive: 18.6%.

Q: With Cc1ccc(N2CCN(C(=O)CCc3nc4ccccc4[nH]3)CC2)c(C)c1 as the compound, how does the Potency read?
A: Its Potency is inconclusive: 37.7 µM [inhibitor, single point].

Q: For Cc1nn(C)c2c1c(C(F)(F)F)cc(=O)n2CC(=O)N1CCCCC1, which “activity change, negative = inhibition” value is on record?
A: The value was inactive: -0.357%.

Q: Which “activity change, negative = inhibition” value does the source give for O=C(NCc1ccccc1)c1cc(S(=O)(=O)N2CCCCC2)ccc1N1CCOCC1 here?
A: Its value is inactive: -3.47%.

Q: With C=CC(=O)Nc1cccc(Nc2nc(NC3CCC(N(C)C)CC3)nc3c2ncn3C(C)C)c1 (configuration not stated) as the compound, how does the Potency read?
A: Its Potency is active: 0.0306 µM.

Q: For O=C(CNc1cccc([N+](=O)[O-])c1)N/N=C/c1ccc([N+](=O)[O-])o1, which Potency is on record?
A: Its Potency is inconclusive: 3.16 µM [inhibitor, partial curve].

Q: For Cc1ccc2c(c1)N(S(=O)(=O)c1cc(-c3onc(C)c3C)ccc1C)CCO2, which Potency is on record?
A: The Potency was “inactive and inconclusive: 20 µM [inhibitor, partial curve, poor fit]”.

Q: Which “activity change, negative = inhibition” value does the source give for Cc1ccc(NC(=O)CSc2nnc(-c3ccncc3)o2)cc1C here?
A: The value was inactive: -8.42%.

Q: With COc1ccccc1CNC(=O)CCn1c(=O)c2ccccc2n(CC(=O)Nc2ccc(Br)cc2F)c1=O as the compound, how does the Potency read?
A: The Potency was inconclusive: 35.5 µM [inhibitor, partial curve, poor fit].

Q: Which “activity change, negative = inhibition” value does the source give for COCCCNC(=O)N1[C@H](c2cccs2)[C@@H](C)C(=O)[C@@H](C)[C@@H]1c1cccs1 here?
A: The value was inactive: -5.52%.

Q: Which Potency does the source give for CCOC(=O)C1=CCN(S(=O)(=O)c2ccc(Br)cc2)C1c1ccccc1 (configuration not stated) here?
A: The Potency was inconclusive: 20 µM [inhibitor, partial curve, poor fit].

Q: For COc1ccccc1CC(=O)Nc1ccc([N+](=O)[O-])cc1O, which Potency is on record?
A: The Potency was inconclusive: 25.1 µM [inhibitor, partial curve, poor fit].

Q: Which Potency does the source give for COc1ccc(NC(=O)Nc2ccc(O)c3ccccc23)cc1 here?
A: The Potency was inconclusive: 37.7 µM [inhibitor, single point].

Q: Which Potency does the source give for CC(C)(CO)Cc1cc(C(C)(C)C)c(O)c(C(C)(C)C)c1 here?
A: Its Potency is inconclusive: 39.8 µM [inhibitor, single point].

Q: With COc1ccc(NC(=O)c2cc(-c3cc(F)ccc3OC)n[nH]2)cc1OC as the compound, how does the Potency read?
A: The Potency was inconclusive: 3.55 µM [inhibitor, partial curve].

Q: Which “activity change, negative = inhibition” value does the source give for Cc1ccc(N(C)S(=O)(=O)c2nnc(NC(=O)c3ccco3)s2)cc1 here?
A: Its value is inactive: 5.23%.

Q: With COc1ccc(Cl)cc1C(=O)NNC(=O)CN1C(=O)C2CC=CCC2C1=O (configuration not stated) as the compound, how does the Potency read?
A: Its Potency is inconclusive: 8.44 µM [inhibitor, partial curve, poor fit].

Q: For Nc1nc(CSC(=S)N2CCOCC2)nc(Nc2ccccc2)n1, which “activity change, negative = inhibition” value is on record?
A: Its value is inactive: 92.7%.

Q: For CCOC(=O)c1sc2nc(C)nc(SC(C)C(=O)N(C)c3ccccc3)c2c1C (configuration not stated), which Potency is on record?
A: The Potency was inconclusive: 39.8 µM [inhibitor, single point].

Q: With C=CCn1c(-c2ccc(Cl)cc2)c[nH]c1=S as the compound, how does the “activity change, negative = inhibition” value read?
A: Its value is inactive: 4.89%.

Q: With CC(C)(C)S(=O)(=O)/C(C#N)=N/Nc1ccc(Cl)cc1 as the compound, how does the activity change, negative = inhibition read?
A: The activity change, negative = inhibition was inconclusive: -58.5% [inhibitor].

Q: Which Potency does the source give for O=C1C=C(Nc2ccc(Cl)cc2)CC(c2ccc(Cl)cc2)C1 (configuration not stated) here?
A: Its Potency is inconclusive: 28.2 µM [inhibitor, partial curve].

Q: For CCOC(=O)[C@]12CCC=C1N(Cc1cccc3ccccc13)C(=O)[C@H](CC(=O)NCCC(C)C)C2, which Potency is on record?
A: The Potency was inconclusive: 39.8 µM [inhibitor, single point].

Q: Which Potency does the source give for COc1ccc(C2CC(c3cccc(Cl)c3)=NN2c2ccc(S(N)(=O)=O)cc2)cc1 (configuration not stated) here?
A: Its Potency is inconclusive: 31.6 µM [inhibitor, partial curve].

Q: Which Potency does the source give for CCCCCCc1cc2cc(-c3nnc(-c4ccccc4)o3)c(=O)oc2cc1O here?
A: Its Potency is inconclusive: 28.2 µM [inhibitor, single point].

Q: With C=C(C)COc1ccc(-c2[nH]ncc2-c2ccc(OC)c(OC)c2)c(O)c1 as the compound, how does the Potency read?
A: Its Potency is inconclusive: 7.08 µM [inhibitor, partial curve, poor fit].

Q: Which “activity change, negative = inhibition” value does the source give for Cc1nc2nc(SCC(=O)NCCCN3CCCC3)nn2c(C)c1Cc1ccccc1Cl here?
A: The value was inactive: -6.9%.

Q: For Cc1cc(C)c(OCC(=O)Nc2nnc(-c3ccco3)o2)c(C)c1, which “activity change, negative = inhibition” value is on record?
A: Its value is inactive: 0.3%.

Q: With Cc1ccc2nc(N/N=C\c3ccc([N+](=O)[O-])o3)nc(-c3ccccc3)c2c1 as the compound, how does the Potency read?
A: Its Potency is inconclusive: 25.1 µM [inhibitor, partial curve].

Q: For CCCCN1C(C(=O)c2ccccc2)=C(OC(=O)CC)c2ccccc2S1(=O)=O, which Potency is on record?
A: The Potency was inconclusive: 39.8 µM [inhibitor, single point].

Q: Which Potency does the source give for COc1ccc2c(c1)c(=O)oc1cc(OCC(=O)NC3CCCCC3)ccc12 here?
A: The Potency was inconclusive: 28.2 µM [inhibitor, single point].

Q: Which “activity change, negative = inhibition” value does the source give for Cc1cccc(N2CCN(S(=O)(=O)c3ccc4c(c3)C(C)(C)C(=O)N4C)CC2C)c1 (configuration not stated) here?
A: Its value is inactive: -11.7%.

Q: Which Potency does the source give for CC[C@H](C)[C@@H](C(=O)NCCCCCCCCCCC(=O)N1CCN(C(=O)OC(C)(C)C)CC1)n1cc(CCCCCNC(=O)OC(C)(C)C)nn1 here?
A: Its Potency is inconclusive: 10 µM [inhibitor, partial curve].

Q: With COc1ccc(S(=O)(=O)N2CCCCCC2)cc1C(=O)N(C)CCOc1ccc(Cl)cc1 as the compound, how does the Potency read?
A: Its Potency is inconclusive: 39.8 µM [inhibitor, single point].

Q: With CC(C)c1ccc(-c2nc(N3CCOCC3)[nH]c(=O)c2C#N)cc1 as the compound, how does the “activity change, negative = inhibition” value read?
A: The value was inactive: 3.04%.

Q: For O=C(Nc1ccc(N2CCN(C(=O)c3ccc(Cl)cc3)CC2)cc1)c1ccc([N+](=O)[O-])o1, which activity change, negative = inhibition is on record?
A: Its activity change, negative = inhibition is inactive: -8.28% [at 11.3 µM].

Q: For COc1nc(N2CCOCC2)nc(C)c1[N+](=O)[O-], which “activity change, negative = inhibition” value is on record?
A: Its value is inactive: -3.99%.

Q: Which Potency does the source give for CN1CCC(NC(=O)c2cc(-c3cccc(Br)c3)nc3ccccc23)CC1 here?
A: Its Potency is inconclusive: 20 µM [inhibitor, partial curve, poor fit].

Q: Which Potency does the source give for O=C(NCc1ccccc1)C1=C[C@@H](c2ccc(C(F)(F)F)cc2)C[C@@H](OCc2ccc(CO)cc2)O1 here?
A: The Potency was inconclusive: 20 µM [inhibitor, single point].

Q: With COc1ccc(-c2nnc(Nc3nc4c(OC)cccc4s3)o2)c(OC)c1 as the compound, how does the Potency read?
A: The Potency was inconclusive: 35.5 µM [inhibitor, single point].

Q: With COc1ccc(C(=O)c2ccc(OC)c(OC)c2)cc1 as the compound, how does the “activity change, negative = inhibition” value read?
A: The value was inactive: 4.44%.

Q: Which Potency does the source give for Cc1cc(O)c(C(C)C)cc1N=Cc1ccc([N+](=O)[O-])cc1 here?
A: The Potency was inconclusive: 35.5 µM [inhibitor, single point].

Q: With O=C(C[C@H]1C[C@H](C(=O)N2CCCCC2)[C@@]2(CCc3ccccc3)c3[nH]c4cc(-c5ccco5)ccc4c3CCN2C1=O)NCCN1CCOCC1 as the compound, how does the Potency read?
A: The Potency was inconclusive: 39.8 µM [inhibitor, single point].

Q: Which Potency does the source give for COc1cc(-c2cnc3c(NC(C)=O)cc(-c4ccc(N5CCN(C)CC5)cc4)cn23)cc(OC)c1OC here?
A: The Potency was active: 14.1 µM.

Q: Which Potency does the source give for Cc1cc(N2CCCC2)nc2ccc(NC(=S)NCCCN3CCC(C)CC3)cc12 here?
A: Its Potency is inconclusive: 33.6 µM [inhibitor, single point].

Q: For CCCCCn1c(SCCCC)nc2c1c(=O)[nH]c(=O)n2C, which Potency is on record?
A: Its Potency is inconclusive: 31.6 µM [inhibitor, partial curve, poor fit].

Q: With CC1(C)CC(=O)C=C(c2ccc(-c3ccc(OC(F)(F)F)cc3)cc2)C1=O as the compound, how does the Potency read?
A: Its Potency is inconclusive: 39.8 µM [inhibitor, single point].

Q: With CCOC(=O)Cc1cc(=O)n2[nH]c(C)c(-c3ccc(Cl)cc3)c2n1 as the compound, how does the Potency read?
A: The Potency was inconclusive: 35.5 µM [inhibitor, single point].

Q: For Oc1ccccc1-c1nc2c3ccccc3c3ccccc3c2[nH]1, which Potency is on record?
A: The Potency was inconclusive: 31.6 µM [inhibitor, partial curve, poor fit].

Q: With COc1ccccc1-c1cc(NC(C)=O)c2ncc(-c3ccc(F)cc3)n2c1 as the compound, how does the Potency read?
A: The Potency was inconclusive: 28.2 µM [inhibitor, partial curve, poor fit].

Q: For CCC(C)NC(=O)c1ccc(CSCc2ccc(Cl)cc2)o1 (configuration not stated), which Potency is on record?
A: The Potency was inconclusive: 3.98 µM [inhibitor, partial curve, poor fit].

Q: Which Potency does the source give for CCOc1ccccc1N(CC)C(=O)Cn1ncc2c1-c1ccccc1OC2 here?
A: The Potency was inconclusive: 31.6 µM [inhibitor, partial curve, poor fit].

Q: Which “activity change, negative = inhibition” value does the source give for Cc1cc(C)c2c(CC(=O)NCc3ccco3)coc2c1 here?
A: The value was inactive: 1.96%.

Q: For COc1ccc(NC(=O)CC2Sc3ncnn3C2=O)cc1 (configuration not stated), which Potency is on record?
A: Its Potency is inconclusive: 39.8 µM [inhibitor, single point].

Q: With CCN1C(=O)c2ccccc2Sc2ccc(NC(=O)Cc3ccc(OC)c(OC)c3)cc21 as the compound, how does the Potency read?
A: The Potency was inconclusive: 11.2 µM [inhibitor, partial curve, poor fit].

Q: With CC(Nc1ncnc2nc[nH]c12)c1ccccc1 (configuration not stated) as the compound, how does the “activity change, negative = inhibition” value read?
A: Its value is inactive: 4.93%.
